Screen size: about 240,000 compounds; about 20 (0.008%) were called active. Inconclusive means that the source gave no clear call. Such entries were picked first, then a sample of the others. Calls follow the shape of the dose curve; as a rule, active = well fitted inhibition curve with a large enough effect; inconclusive = small, poorly fitted or top-dose-only effect, or effect the other way; inactive = flat fitted curve, though single readings scatter. No potency is given beside an inconclusive call; the fits are too rough.
Each compound was assayed against Alpha-galactosidase A (Homo sapiens) (UniProt P06280) (assay: qHTS Assay for Inhibitors and Activators of Human alpha-Galactosidase From Spleen Homogenate). Conditions: 4MU-alpha-Gal fluorescence, 40 min; activity change, negative = inhibition: at 80 µM (top of the series).
UniProt P06280, sequence (P06280 whole entry, looked up): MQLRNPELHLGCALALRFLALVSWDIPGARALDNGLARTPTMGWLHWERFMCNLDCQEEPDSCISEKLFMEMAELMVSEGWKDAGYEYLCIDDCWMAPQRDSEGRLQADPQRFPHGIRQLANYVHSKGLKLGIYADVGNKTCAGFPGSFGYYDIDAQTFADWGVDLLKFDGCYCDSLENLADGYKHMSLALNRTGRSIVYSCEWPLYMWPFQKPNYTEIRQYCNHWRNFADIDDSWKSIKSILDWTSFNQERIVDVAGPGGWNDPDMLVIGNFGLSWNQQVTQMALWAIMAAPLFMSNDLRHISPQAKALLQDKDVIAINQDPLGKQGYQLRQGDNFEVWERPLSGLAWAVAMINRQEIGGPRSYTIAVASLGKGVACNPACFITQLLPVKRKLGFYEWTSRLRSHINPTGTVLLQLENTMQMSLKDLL
Outline: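 qHTS titration in buffer at pH 5.0. Alpha-galactosidase activity in spleen homogenate was measured via 4-methylumbelliferone release from 1 mM fluorogenic substrate after 40 min at 37C and a pH 10 stop. AC50 came from Hill fits of control-normalized data.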
`CC1CN(c2oc(-c3cccs3)nc2C#N)CC(C)O1` (stereo unspecified) was tested, and the Potency was inconclusive [activator, full curve].
For `Cc1nn(-c2ccccc2)c(Cl)c1/C=C(\C#N)C(=O)NC(C)C`, the Potency was “inactive”.
For `Cc1cccc(CNc2ncnc3ccc(-c4ccccc4CN(C)C)cc23)c1`, the Potency was “inactive”.
`Cc1ccc(N=C2NC(=O)C(CC(=O)NCc3ccccc3)S2)cc1C` (stereo unspecified) was tested, and the Potency was “inactive”.
In the case of `CCC12OC(=N)C(C#N)(C1C)C(C#N)(C#N)C(c1ccccc1)O2` (stereo unspecified), the Potency was inconclusive [activator, single point].
In the case of `N#Cc1c(NC(=O)COC(=O)c2ccc(S(=O)(=O)N3CCCC3)cc2)sc2c1CCCCC2`, the Potency was “inactive”.
In the case of `Oc1ccc(Nc2nc3ccccc3nc2Nc2ccc(O)cc2)cc1`, the Potency was “inactive”.
For `N#Cc1c(-c2cccs2)cc(-c2ccccn2)nc1N`, the Potency was inconclusive [activator, single point].
`Cc1cc(=O)oc2c(CN3CCC(C)CC3)c(O)c(Cl)cc12` was tested, and the Potency was inconclusive [activator, partial curve].
With `CN1CCN(c2nc(-c3ccoc3)nc3ccccc23)CC1` the Potency was “inactive”.
`CCOC(=O)c1ccccc1NC1CC(=O)N(c2ccccc2C)C1=O` (stereo unspecified) was tested, and the Potency was inconclusive [activator, single point].
In the case of `O=c1[nH]c(=O)n(Cc2ccco2)c2c1C(C(F)(F)F)(C(F)(F)F)N=C(c1ccc(F)cc1)N2`, the Potency was “inactive”.
With `CSc1ccc(/C=C2/C(C)=C(CC(=O)O)c3cc(F)ccc32)cc1` the Potency was “inactive”.
With `CCOC(=O)c1nn(-c2sc(C(=O)OC)c(C)c2C(=O)OC)cc1O` the Potency was inconclusive [inhibitor, partial curve].
For `COCCn1c(=NC(=O)c2ccc3c(c2)OCO3)c(C#N)cc2c(=O)n3cccc(C)c3nc21`, the Potency was inconclusive [activator, full curve].
For `CCOC(=O)c1cc2c(=O)n3ccccc3nc2n(CC2CCCO2)c1=NC(C)=O` (stereo unspecified), the Potency was inconclusive [activator, partial curve].
With `NC(=O)C1(N2CCCCC2)CCN(C(=O)c2cccn3c(=O)c4cc(Cl)ccc4nc23)CC1` the Potency was inconclusive [activator, single point].
With `O=C1c2cccc3cccc(c23)N1Cc1ccc(F)cc1` the Potency was “inactive”.
For `CCOCCCn1c(=N)c(C(N)=S)cc2c(=O)n3cccc(C)c3nc21`, the Potency was inconclusive [activator, single point].
With `COc1ccc(S(=O)(=O)N2CCSC2c2ccc(OC)c(OC)c2)cc1` (stereo unspecified) the Potency was inconclusive [inhibitor, single point].
`CCS(=O)(=O)N1CCC(C(=O)O)CC1` was tested, and the Potency was “inactive”.
With `CCCS(=O)(=O)N1CCN(C(=O)c2ccco2)CC1` the Potency was inconclusive [activator, full curve, poor fit].
In the case of `C=CCNc1oc(-c2cccc3ccccc23)nc1C#N`, the Potency was inconclusive [activator, single point].
In the case of `CCCCCCCC#Cc1ccccc1/C=N/S(=O)c1ccc(C)cc1` (stereo unspecified), the Potency was “inactive”.
In the case of `OCCC(O)CO` (stereo unspecified), the Potency was “inactive”.
For `CCC(C)n1c(-c2cccs2)nc2nc3ccccc3nc21` (stereo unspecified), the Potency was inconclusive [activator, partial curve].
`CCCCOC(=O)c1ccc(NC(=O)C(=O)NCCN(C)C)cc1` was tested, and the Potency was inconclusive [activator, full curve, poor fit].
With `CCCCC#Cc1nc(N)c2ncn([C@@H]3O[C@H](C(=O)NCC)[C@@H](O)[C@H]3O)c2n1` the Potency was inconclusive [inhibitor, partial curve].
`O=C(Nc1ccccc1F)Nc1cc(S(=O)(=O)N2CCOCC2)ccc1N1CCCC1` was tested, and the Potency was “inactive”.
`COCCNC(=O)CSC1=N/C(=C/c2ccc(Cl)c(Cl)c2)C(=O)N1c1ccccc1F` was tested, and the Potency was inconclusive [activator, single point].
In the case of `COC(=O)CN(c1ccc(C)cc1)S(=O)(=O)c1c(C)[nH]c(=O)[nH]c1=O`, the Potency was inconclusive [inhibitor, partial curve].
For `COc1ccc(CNC(=O)CCSCc2ccccc2C)cc1`, the Potency was inconclusive [inhibitor, single point].
For `O=C(N/N=C/c1ccc(O)cc1)/C(=C/c1ccc([N+](=O)[O-])cc1)NC(=O)c1ccccc1`, the Potency was inconclusive [activator, single point].
With `O=C(Cc1cccc2ccccc12)Nc1ccc(-c2cc3ccccc3oc2=O)cc1` the Potency was inconclusive [activator, partial curve].
`CCn1nc(C)c(/C=N/NC(=O)Cn2nc(C)cc2C)c1C` was tested, and the Potency was “inactive”.
For `c1ccc(C2Nc3ccccc3-c3nc4ccccc4n32)nc1` (stereo unspecified), the Potency was inconclusive [activator, single point].
With `CCOc1cc([N+](=O)[O-])c2nc(N)sc2c1` the Potency was “inactive”.
For `CCCOc1ccc([N+](=O)[O-])c(N)c1`, the Potency was “inactive”.
For `COc1ccc(-c2cc(-c3ccccc3)nc3ncnn23)cc1`, the Potency was inconclusive [activator, single point].
For `O=C1OCCN1C(=O)[C@H]1[C@H](c2ccc(F)cc2)C(c2ccccc2)=NN1c1ccc(Br)cc1`, the Potency was inconclusive [activator, single point].
`Cc1c(O)cccc1C(=O)N[C@@H](CSc1ccccc1)[C@H](O)CN1C[C@H]2CCCC[C@H]2C[C@H]1C(=O)NC(C)(C)C` was tested, and the Potency was inconclusive [activator, partial curve].
`CO[C@H]1COC(=O)[C@@H](C)COC(=O)[C@H](C)NC(=O)C/C=C\[C@H]1C` was tested, and the activity change, negative = inhibition was inactive: 7.49% [at 17.5 µM].
With `CC1CCCCN1C(=O)COc1ccccc1F` (stereo unspecified) the Potency was “inactive”.
With `Cc1ccc(S(=O)(=O)N2CCN(CC(=O)Nc3ccc(N4CCOCC4)cc3)CC2)cc1C` the Potency was inconclusive [activator, single point].
In the case of `CCCCC(=O)Nc1ccc2oc(-c3cccnc3)nc2c1`, the Potency was inconclusive [activator, single point].
For `N#CC1(C#N)C(c2ccccc2)OC23CCCCCC2C1(C#N)C(=N)O3` (stereo unspecified), the Potency was inconclusive [inhibitor, partial curve].
In the case of `CCOCC(=O)Nc1cc(-c2cn3cccnc3n2)ccc1C`, the Potency was inconclusive [activator, partial curve].
`CCOC(=O)COn1c(=O)c(=O)n(OC)c2ccccc21` was tested, and the Potency was inconclusive [inhibitor, partial curve].
In the case of `CC(C)Oc1ccc(NC(N)=O)cc1`, the Potency was inconclusive [activator, single point].
With `Cc1cccc(N2CCN(C(=O)CSCc3c(C)noc3C)CC2)c1C` the Potency was “inactive”.
`CN(C)CCCNC(=S)NCCNc1nc2cc3c(cc2cc1C#N)OCO3` was tested, and the Potency was inconclusive [activator, single point].
In the case of `COc1ccccc1NC(=O)CC1S/C(=N/N=C2\CCCc3ccccc32)NC1=O` (stereo unspecified), the Potency was “inactive”.
With `COc1ccc2cc(C(=O)C3CCCN(C(=O)CSc4nnc(C)o4)C3)ccc2c1` (stereo unspecified) the Potency was inconclusive [activator, single point].
For `COC(=O)C1NN=C(C(=O)c2ccc(Cl)cc2)C1c1ccc(OC)cc1` (stereo unspecified), the Potency was “inactive”.
In the case of `Cn1c(CCN2CCCCCC2)nc2cc(NC(=O)Nc3ccccc3)ccc21`, the Potency was inconclusive [inhibitor, single point].
With `CCOC(=O)c1cc2c(=O)n3ccccc3nc2n(Cc2ccco2)c1=NC(=O)c1ccc(OC)cc1OC` the Potency was inconclusive [activator, partial curve].
In the case of `Cc1cc(C)c(C#N)c(SCC(=O)NC2CC2)n1`, the Potency was inconclusive [inhibitor, single point].
With `CCOC(=O)C1CCCN(Cc2nc(N)nc(Nc3ccc(OC)cc3)n2)C1` (stereo unspecified) the Potency was inconclusive [inhibitor, single point].
For `CC(C)=CCC/C(C)=C/COc1ccc2ccc(=O)oc2c1`, the Potency was inconclusive [activator, partial curve].
For `COCCN(C(=O)Cc1cccs1)c1nnc(-c2cccnc2)s1`, the Potency was “inactive”.
`COCCN(CCOC)Cc1c(O)ccc2c3c(c(=O)oc12)CCC3` was tested, and the Potency was inconclusive [activator, partial curve].
For `COc1ccccc1C(=O)NCc1ccccc1`, the Potency was inconclusive [inhibitor, single point].
For `Cc1ccc(S(=O)(=O)c2cc3c(=O)n4ccccc4nc3n(Cc3ccco3)c2=N)cc1`, the Potency was inconclusive [activator, single point].
For `CCOc1ccc2nc(NC(=O)c3cnccn3)sc2c1`, the Potency was inconclusive [inhibitor, full curve, poor fit].
`Cc1ccc(NC(=O)C2CCCN2S(=O)(=O)c2ccc(F)cc2)c(C)c1` (stereo unspecified) was tested, and the Potency was inconclusive [inhibitor, partial curve].
`COc1cc(NC(=O)c2ccccc2)c(OC)cc1NC(=O)CN1CCN(c2ccccn2)CC1` was tested, and the Potency was “inactive”.
In the case of `Cc1ccccc1OCCCCCNCCO`, the Potency was “inactive”.
With `S=c1[nH]nc(-c2cc3c(s2)-c2ccccc2CC3)o1` the Potency was inconclusive [activator, partial curve].
With `Cc1c(O)c(CN2CCCC2)cc2c3c(c(=O)oc12)CCC3` the Potency was inconclusive [activator, partial curve].
For `Clc1ccccc1C(c1ccccc1)(c1ccccc1)n1ccnc1`, the Potency was inconclusive [inhibitor, partial curve].
`CCCc1nnc(NC(=O)c2ccncc2)s1` was tested, and the Potency was inconclusive [activator, single point].

— PubChem BioAssay AID2107 (National Center for Advancing Translational Sciences (NCATS), 2009)
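For activity change, negative = inhibition in this document: 0% = enzyme with vehicle and -100% = no enzyme basal signal.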
Potency is read from the fitted curve at half-maximal effect; tags tell the direction and shape of the fitted curve.
